# From PubChem BioAssay (NCI)
#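 96-well plates; 48 h exposure; 5 concentrations. Endpoints by linear interpolation between flanking doses. Not reached: highest tested concentration assigned. The concentration for 50% growth inhibition is given as GI50.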 A number of entries come with more than one value. The list is limited to them. There may be further records. Records of one sample usually come from different ranges of test concentrations, not given here; some values may only mark the edge of a range.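 Definition used: TGI = concentration required for complete inhibition of growth.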
# Columns and labels:
# Experiment in all cases: DTP human tumour cell line panel, 48 h
# 786-0 renal = test system: 786-0 renal
# A498 renal = test system: A498 renal
# A549 NSCLC = test system: A549 NSCLC
# ACHN renal = test system: ACHN renal
# BT-549 breast = test system: BT-549 breast
# CCRF-CEM leukemia = test system: CCRF-CEM leukemia
# DU-145 prostate = test system: DU-145 prostate
# EKVX NSCLC = test system: EKVX NSCLC
# HCC-2998 colon = test system: HCC-2998 colon
# HCT-116 colon = test system: HCT-116 colon
# HCT-15 colon = test system: HCT-15 colon
# HL-60(TB) leukemia = test system: HL-60(TB) leukemia
# HOP-62 NSCLC = test system: HOP-62 NSCLC
# HOP-92 NSCLC = test system: HOP-92 NSCLC
# HS 578T breast = test system: HS 578T breast
# HT29 colon = test system: HT29 colon
# IGROV1 ovarian = test system: IGROV1 ovarian
# K-562 leukemia = test system: K-562 leukemia
# KM12 colon = test system: KM12 colon
# LOX IMVI melanoma = test system: LOX IMVI melanoma
# M14 melanoma = test system: M14 melanoma
# MALME-3M melanoma = test system: MALME-3M melanoma
# MCF7 breast = test system: MCF7 breast
# MDA-MB-231 breast = test system: MDA-MB-231 breast
# MDA-MB-435 = test system: MDA-MB-435
# MDA-N = test system: MDA-N
# MOLT-4 leukemia = test system: MOLT-4 leukemia
# NCI-H226 lung = test system: NCI-H226 lung
# NCI-H23 lung = test system: NCI-H23 lung
# OVCAR-3 ovarian = test system: OVCAR-3 ovarian
# OVCAR-4 ovarian = test system: OVCAR-4 ovarian
# OVCAR-5 ovarian = test system: OVCAR-5 ovarian
# OVCAR-8 ovarian = test system: OVCAR-8 ovarian
# PC-3 prostate = test system: PC-3 prostate
# RPMI-8226 leukemia = test system: RPMI-8226 leukemia
# RXF 393 renal = test system: RXF 393 renal
# SF-268 CNS = test system: SF-268 CNS
# SF-295 CNS = test system: SF-295 CNS
# SF-539 CNS = test system: SF-539 CNS
# SK-MEL-2 melanoma = test system: SK-MEL-2 melanoma
# SK-MEL-5 melanoma = test system: SK-MEL-5 melanoma
# SK-OV-3 ovarian = test system: SK-OV-3 ovarian
# SN12C renal = test system: SN12C renal
# SNB-19 CNS = test system: SNB-19 CNS
# SNB-75 CNS = test system: SNB-75 CNS
# SR leukemia = test system: SR leukemia
# SW-620 colon = test system: SW-620 colon
# TK-10 renal = test system: TK-10 renal
# U251 CNS = test system: U251 CNS
# UACC-257 melanoma = test system: UACC-257 melanoma
# UACC-62 melanoma = test system: UACC-62 melanoma
# UO-31 renal = test system: UO-31 renal
compound,measurement,setting,value
CC[C@]1(O)C[C@H]2CN(CCc3c([nH]c4ccccc34)[C@@](C(=O)OC)(c3cc4c(cc3OC)N(C=O)[C@H]3[C@@](O)(C(=O)OC)[C@H](OC(C)=O)[C@]5(CC)C=CCN6CC[C@]43[C@@H]65)C2)C1,GI50,786-0 renal,1.95 µM [1 test] and 114 nM [mean of 20 tests] and 1.07 nM [mean of 6 tests]
same,TGI,786-0 renal,62.5 µM [1 test] and > 69.7 µM [mean of 20 tests] and 585 nM [mean of 6 tests]
same,TGI,A498 renal,43.7 nM and 631 nM
same,GI50,A549 NSCLC,1.95 µM [mean of 2 tests] and 108 nM [mean of 50 tests] and 8.24 nM [mean of 9 tests]
same,TGI,A549 NSCLC,158 µM [mean of 2 tests] and 124 µM [mean of 50 tests] and 5.94 µM [mean of 9 tests]
same,TGI,ACHN renal,2.61 µM and 150 µM
same,GI50,BT-549 breast,23.6 µM [1 test] and 19.9 nM [mean of 4 tests] and 259 nM [mean of 5 tests]
same,TGI,BT-549 breast,61 µM [1 test] and 2.03 µM [mean of 4 tests] and 62.7 µM [mean of 5 tests]
same,GI50,CCRF-CEM leukemia,1.95 µM [mean of 2 tests] and 1.04 nM [mean of 6 tests]
same,TGI,CCRF-CEM leukemia,"464 nM, 60.8 µM, 44.2 µM"
same,GI50,DU-145 prostate,119 nM [mean of 5 tests] and 1.11 nM [mean of 7 tests]
same,TGI,DU-145 prostate,36.8 µM [mean of 5 tests] and 208 nM [mean of 7 tests]
same,GI50,EKVX NSCLC,1.95 µM [1 test] and 6.43 nM [mean of 7 tests]
same,TGI,EKVX NSCLC,"6.39 µM, 122 µM, 180 µM"
same,GI50,HCC-2998 colon,109 nM [mean of 38 tests] and 1.06 nM [mean of 7 tests]
same,TGI,HCC-2998 colon,5.82 µM [mean of 38 tests] and 18.5 nM [mean of 7 tests]
same,TGI,HCT-116 colon,50.7 nM and 3.8 µM
same,GI50,HCT-15 colon,1.95 µM [mean of 2 tests] and 42.2 nM [mean of 9 tests]
same,TGI,HCT-15 colon,"1.88 µM, 27.4 µM, 35.6 µM"
same,GI50,HL-60(TB) leukemia,107 nM [mean of 34 tests] and 1.07 nM [mean of 6 tests]
same,TGI,HL-60(TB) leukemia,450 nM [mean of 34 tests] and 14.4 nM [mean of 6 tests]
same,GI50,HOP-62 NSCLC,1.95 µM [mean of 2 tests] and 1 nM [mean of 6 tests]
same,GI50,HOP-92 NSCLC,1.95 µM [mean of 2 tests] and 119 nM [mean of 39 tests] and 12 nM [mean of 5 tests]
same,GI50,HS 578T breast,1.95 µM [mean of 2 tests] and 4.64 nM [mean of 6 tests]
same,TGI,HS 578T breast,64.7 µM [mean of 2 tests] and 5.74 µM [mean of 5 tests] and 2.15 µM [mean of 6 tests]
same,GI50,HT29 colon,107 nM [mean of 35 tests] and < 1 nM [mean of 4 tests]
same,GI50,IGROV1 ovarian,1.95 µM [mean of 2 tests] and 5.82 nM [mean of 8 tests]
same,TGI,IGROV1 ovarian,95.6 µM [mean of 2 tests] and 38.9 µM [mean of 45 tests] and 920 nM [mean of 8 tests]
same,GI50,K-562 leukemia,1.95 µM [1 test] and 2.3 nM [mean of 7 tests]
same,TGI,K-562 leukemia,7.91 µM [1 test] and 71 µM [mean of 45 tests] and 3.44 µM [mean of 7 tests]
same,GI50,KM12 colon,2.93 µM [mean of 2 tests] and 109 nM [mean of 28 tests] and 2.88 nM [mean of 5 tests]
same,TGI,KM12 colon,93.6 µM [mean of 2 tests] and 1.4 µM [mean of 28 tests] and 509 nM [mean of 5 tests]
same,GI50,LOX IMVI melanoma,1.95 µM [mean of 2 tests] and 105 nM [mean of 45 tests] and < 1 nM [mean of 6 tests]
same,TGI,LOX IMVI melanoma,46.8 µM [mean of 2 tests] and 57.9 µM [mean of 45 tests] and 2.15 µM [mean of 6 tests]
same,GI50,M14 melanoma,105 nM [mean of 18 tests] and 1.95 µM [mean of 2 tests] and < 1 nM [mean of 5 tests]
same,TGI,M14 melanoma,10.2 µM [mean of 18 tests] and 36.2 µM [mean of 2 tests] and 213 nM [mean of 5 tests]
same,GI50,MALME-3M melanoma,1.95 µM [mean of 2 tests] and 3.17 nM [mean of 5 tests]
same,GI50,MCF7 breast,1.95 µM [mean of 2 tests] and < 1 nM [mean of 7 tests]
same,TGI,MCF7 breast,133 µM [mean of 2 tests] and 58.8 µM [mean of 30 tests] and 1.13 µM [mean of 7 tests]
same,TGI,MDA-MB-231 breast,689 nM [mean of 6 tests] and 29.2 nM [mean of 8 tests]
same,TGI,MDA-MB-435,16.2 nM and 1.22 µM
same,TGI,MDA-N,21.5 nM and 1.07 µM
same,GI50,MOLT-4 leukemia,1.95 µM [mean of 2 tests] and 101 nM [mean of 42 tests] and 8.98 nM [mean of 7 tests]
same,GI50,NCI-H226 lung,1.95 µM [mean of 2 tests] and 122 nM [mean of 35 tests] and 10.8 nM [mean of 6 tests]
same,TGI,NCI-H226 lung,9.99 µM [mean of 2 tests] and 327 nM [mean of 35 tests] and 1.71 µM [mean of 6 tests]
same,TGI,NCI-H23 lung,28.7 nM and 15.3 µM
same,GI50,OVCAR-3 ovarian,1.95 µM [1 test] and 2.87 nM [mean of 7 tests]
same,TGI,OVCAR-3 ovarian,"12.3 nM, 455 nM, 140 µM"
same,GI50,OVCAR-4 ovarian,42.4 µM [mean of 2 tests] and 32.8 nM [mean of 3 tests] and 476 nM [mean of 42 tests]
same,GI50,OVCAR-5 ovarian,135 µM [1 test] and 9.6 nM [mean of 6 tests]
same,TGI,OVCAR-5 ovarian,"8.62 µM, 210 µM, 254 µM"
same,GI50,OVCAR-8 ovarian,1.95 µM [mean of 2 tests] and 105 nM [mean of 46 tests] and 4.49 nM [mean of 7 tests]
same,TGI,OVCAR-8 ovarian,78.7 µM [mean of 2 tests] and 11.3 µM [mean of 46 tests] and 890 nM [mean of 7 tests]
same,GI50,PC-3 prostate,1.95 µM [mean of 2 tests] and 1.47 nM [mean of 8 tests]
same,TGI,PC-3 prostate,93.8 µM [mean of 2 tests] and 11.6 µM [mean of 6 tests] and 674 nM [mean of 8 tests]
same,GI50,RPMI-8226 leukemia,1.95 µM [mean of 2 tests] and 106 nM [mean of 38 tests] and < 1 nM [mean of 7 tests]
same,TGI,RPMI-8226 leukemia,26.8 µM [mean of 2 tests] and 14.8 µM [mean of 38 tests] and 196 nM [mean of 7 tests]
same,GI50,RXF 393 renal,1.95 µM [mean of 2 tests] and 49.9 nM [mean of 4 tests]
same,GI50,SF-268 CNS,1.95 µM [mean of 2 tests] and < 1 nM [mean of 7 tests]
same,GI50,SF-295 CNS,106 nM [mean of 41 tests] and 2.92 nM [mean of 7 tests]
same,GI50,SF-539 CNS,106 nM [mean of 41 tests] and < 1 nM [mean of 5 tests]
same,TGI,SF-539 CNS,135 nM [mean of 41 tests] and 4.95 nM [mean of 5 tests]
same,GI50,SK-MEL-2 melanoma,1.95 µM [1 test] and 71.6 nM [mean of 8 tests]
same,TGI,SK-MEL-2 melanoma,"1.51 µM, 1.66 µM, 80.7 µM"
same,GI50,SK-MEL-5 melanoma,1.95 µM [1 test] and 111 nM [mean of 44 tests] and < 1 nM [mean of 8 tests]
same,TGI,SK-MEL-5 melanoma,64 µM [1 test] and 519 nM [mean of 44 tests] and 5.63 nM [mean of 8 tests]
same,GI50,SK-OV-3 ovarian,1.95 µM [mean of 2 tests] and 1.82 nM [mean of 6 tests]
same,TGI,SK-OV-3 ovarian,"1.4 µM, 22.7 µM, 22.2 µM"
same,GI50,SN12C renal,1.95 µM [mean of 2 tests] and 119 nM [mean of 46 tests] and 1.26 nM [mean of 7 tests]
same,TGI,SN12C renal,111 µM [mean of 2 tests] and 102 µM [mean of 46 tests] and 446 nM [mean of 7 tests]
same,GI50,SNB-19 CNS,1.95 µM [mean of 2 tests] and 3.04 nM [mean of 7 tests]
same,GI50,SNB-75 CNS,1.95 µM [mean of 2 tests] and < 1 nM [mean of 3 tests]
same,TGI,SNB-75 CNS,"21.5 nM, 56.3 µM, 80.5 µM"
same,TGI,SR leukemia,212 nM and 11.3 µM
same,GI50,SW-620 colon,1.95 µM [mean of 2 tests] and 105 nM [mean of 48 tests] and < 1 nM [mean of 9 tests]
same,GI50,TK-10 renal,2.66 µM [mean of 15 tests] and 8.44 µM [mean of 2 tests] and 44.7 nM [mean of 7 tests]
same,TGI,TK-10 renal,158 µM [mean of 15 tests] and 14.6 µM [mean of 2 tests] and 2.61 µM [mean of 7 tests]
same,GI50,U251 CNS,1.95 µM [mean of 2 tests] and < 1 nM [mean of 7 tests]
same,GI50,UACC-257 melanoma,1.95 µM [mean of 2 tests] and 145 nM [mean of 37 tests] and 249 nM [mean of 7 tests]
same,TGI,UACC-257 melanoma,67 µM [mean of 2 tests] and 72.3 µM [mean of 37 tests] and 2.68 µM [mean of 7 tests]
same,GI50,UACC-62 melanoma,6.03 µM [mean of 2 tests] and 126 nM [mean of 47 tests] and < 1 nM [mean of 6 tests]
same,TGI,UO-31 renal,154 µM and 10.5 µM
